This note sets out measurements from PMC12136788.

To fix the notation:
B1: chr11:9429001:9429102:+|CDS|ENSG00000205339|msi1_unk|FALSE|overlapping (ssRNA)
RNA: GGGAGUUCUACAGUCCGACGAUCGGUACUUCACUAUUUUUGUGAAGUGAAGUUCAAAAGUGAUCAGAACCUUCAAACAGCCUUAGAGCUAACAAGAAGAUGUCUGAUUGAUGAUAGAGAAAUGCCUGUGAAAGUGGAAGCUGCCAACAGAGGAUUGAGCAUCA
B2: chr5:72208420:72208520:+|3pUTR|ENSG00000131711|msi1_unk|total|mutant (ssRNA)
RNA: GGGAGUUCUACAGUCCGACGAUCCUCAUGAUCAUGACCUUUUUGGCCGUAUUCUUAAACAAAAUUCUACAGAGACUAAAUGUCCGCGAUGAUCCUCCAUUUUCAAUUUUAACCAAUUCUGUCCCCUUUCUCAAAACCCUGAGCCAACAGAGGAUUGAGCAUCA
B3: chr1:183252010:183252124:-|3pUTR|ENSG00000157064|unk|total|mutant (ssRNA)
RNA: GGGAGUUCUACAGUCCGACGAUCUCUUUGUUCACUCCCUGCCGAACUUGGAUGAAAUCAGUGUCCAUGGUUCUUUAUGUUUGCCGUCUUGAUGUGCUCCUGUGGUAUUACUUCCCCUCUGACCGGACAUUGCCGCCAGCCUCACAACAGAGGAUUGAGCAUCA
B4: chr6:107883018:107883119:-|CDS|ENSG00000025796|unk|total|mutant (ssRNA)
RNA: GGGAGUUCUACAGUCCGACGAUCAAGGAAGAUGAAGAAGAAGUUUCAGAUAAGGGCAGUGAUUCUGAAGAAGAAGAAACCAACCGAGAUUCCCAAAGUGAGAAAGAUGAUGGCCGUGACAGAGACUCUGACCGAGAGCAAGAUCAACAGAGGAUUGAGCAUCA
B5: ENSG00000198589:be:win_5651|CDS|ENSG00000198589|bound_else_gene|NA|bound_elsewhere_windowed (ssRNA)
RNA: GGGAGUUCUACAGUCCGACGAUCUUAGCCAGACAAUGAAGGAUCAUCUAGUAAGAGUAGCAAAUGAAGCUGAAUUUAUCCUGAGCAGGCAGAGAGCAGAAGAUAUUCACAGACAUGCGGAAUUUGAGUCACUGUGUGCCCAGUCAACAGAGGAUUGAGCAUCA
B6: chr11:2397021:2397122:+|3pUTR|ENSG00000110651|msi1|total|mutant (ssRNA)
RNA: GGGAGUUCUACAGUCCGACGAUCUUGGGGUUUUGUUUUUGUUCUGAACUUUCCUGUUACCUUUUCAGGGCUGACGUCACAUGCCGGUGGCGUGUAUGAGUGGAGACGGGCCUGGGUCUUGGGGACUGGAGGGCAGGGGUCCUUCAACAGAGGAUUGAGCAUCA
B7: ENSG00000107863:be:win_5101|CDS|ENSG00000107863|bound_else_gene|NA|bound_elsewhere_windowed (ssRNA)
RNA: GGGAGUUCUACAGUCCGACGAUCGAUACUCUUUCCAGGAAAAAAUCAGCUAGAUUCAAGUCAGAUAGUGGAAGUCUAGGAGAUGCCAAGAAUGAGAAAGAAGCACCUUCGUUAACUAAAGUGUUUGAUGUUAUGAAAAAAGGACAACAGAGGAUUGAGCAUCA
B8: chr12:68839811:68839877:+|CDS_3pUTR|ENSG00000135679|msi1_unk|total|mutant (ssRNA)
RNA: GGGAGUUCUACAGUCCGACGAUCAUAAGCCCUGCCCAGUAUGCCGACAACCAAUUCAAAUGAUUGUGCUAACUUAUUUCCCCCCGUUGACCUGUCUAUAAGAGAAUUAUAUAUUUCUAACUAUAUAACCCCCGGAAUUCCGACCAACAGAGGAUUGAGCAUCA
B9: ENSG00000175470:stop:overlap|stop_codon|ENSG00000175470|stop_codon|NA|stop_codon (ssRNA)
RNA: GGGAGUUCUACAGUCCGACGAUCACAAUGUCAUUGCCGUGGCUGCCACCAAUAACUUGUACAUAUUCCAGGACAAAAUCAACUAGAGACGCGAACGUGAGGACCAAGUCUUGUCUUGCAUAGUUAAGCCGGACAUUUUUCUGUCAACAGAGGAUUGAGCAUCA
B10: chrX:54470015:54470457:-|CDS|ENSG00000102302|control|control|control (ssRNA)
RNA: GGGAGUUCUACAGUCCGACGAUCUUCGUCAGUGAUGACGGGCCCCCCAGCCACAGCCUCUGCCCUGGGCCCCCUGCCCUGGCUAGUGUGCCUGUUGCCUUGGCCGACCCCCACCGGCCUGGCUCCCAAGAGGUUGACAGUGACCAACAGAGGAUUGAGCAUCA
B11: chr12:66123492:66123593:-|3pUTR|ENSG00000139233|msi1|FALSE|unique (ssRNA)
RNA: GGGAGUUCUACAGUCCGACGAUCAUGCUACCCAAUAUCCAGUUAUAAUCAGGCCUCAACGUUCUGUCAGGUAUUAAUAUGGUUAGAAUUGUUCUUACAACUGGUAAUUAUAGUCAAUAGAGAUAAAACAGAUGAUGUACUGACCAACAGAGGAUUGAGCAUCA
B12: chr4:67617988:67618115:-|3pUTR|ENSG00000033178|unk|total|mutant (ssRNA)
RNA: GGGAGUUCUACAGUCCGACGAUCAAAUGCCGAAUGUUAAAAAUUAUUGCCCGGGCCGUCUUUUUUUUUUCCAGAAACCUAAUCCGGGUAUUAAAUUUUGUGUUUUUUUUGUUUUUUUUUUUUAAACAGAAGCAUGUUAUUUCACAACAGAGGAUUGAGCAUCA
B13: ENSG00000118785:stop:overlap|stop_codon|ENSG00000118785|stop_codon|NA|stop_codon (ssRNA)
RNA: GGGAGUUCUACAGUCCGACGAUCAGUUUCGCAGACCUGACAUCCAGGUAAAUCCUUUAACAGACACACCUGAUGGUUCUGACUAGCGCUCAAGUCUAGGAAACCACAGUUUGCAUAUUCAUUCAUUCAUUCAUCCAUUCAUUCCAACAGAGGAUUGAGCAUCA
B14: chr4:109463114:109463221:+|CDS|ENSG00000138802|unk|total|mutant (ssRNA)
RNA: GGGAGUUCUACAGUCCGACGAUCAGGAGCACAGCAGUUGUACAGCAGGGGUCCUCCUGCCCCUCAUAUUGUGGGAUCCACUCCCGGAUCUUUCCAAGGUGCUGCAUCGUCAGCAUCCCAUUUGCAUACGAGUGCCUCCCAACCCAACAGAGGAUUGAGCAUCA
B15: ENSG00000070961:be:win_4801|3pUTR|ENSG00000070961|bound_else_gene|NA|bound_elsewhere_windowed (ssRNA)
RNA: GGGAGUUCUACAGUCCGACGAUCCUUGUUUGUAAACAUAAAUAAAUAUGCCCUUUUAUUAAAUAAAUUCAUGGCAAUGUUUUUUUAAAAGACAUUUCAGCUUCUUUACUCAGUUCUGCAUAUACAGUGCAUCAGUCUGUUCUCCAACAGAGGAUUGAGCAUCA
B16: ENSG00000198589:be:win_8651|3pUTR|ENSG00000198589|bound_else_gene|NA|bound_elsewhere_windowed (ssRNA)
RNA: GGGAGUUCUACAGUCCGACGAUCUUGCUCAAAGAAGCAAAAUAUUUUUUAAAGUUAUUAAUAAUUGCUAUUUUUGUAGUCUUUGCUUGACUUUUUUGGGGGGGAUUAGCAAAGCAGAAAACUGGCUGCUGGGUUCUGUAGUUUCAACAGAGGAUUGAGCAUCA
B17: chr12:110381781:110381892:-|CDS|ENSG00000196510|unk|FALSE|unique (ssRNA)
RNA: GGGAGUUCUACAGUCCGACGAUCAAGGCCAUUCAGCUGAACAGUAAUAGUGUUCAAGCUCUGCUACUUAAGGGAGCAGCACUUAGGAACAUGGGCAGAGUCCAAGAAGCAAUAAUCCACUUUCGGGAGGCCAUACGGCUCGCACAACAGAGGAUUGAGCAUCA
B18: chrX:8795077:8795420:-|CDS|ENSG00000183304|control|control|control (ssRNA)
RNA: GGGAGUUCUACAGUCCGACGAUCAGCAGCAGAAGCCGCAGCAGCAGCAGAAGCCGCAGCAGCAGCAGCAGAAGUAAUAGUAGUAGAAGACGAAGAGGAGGAAGAGAAGGAGGAGGAGGAGGAGAAAGAAGAGGAGGAAGAAGACAACAGAGGAUUGAGCAUCA
B19: ENSG00000132640:stop:overlap|stop_codon|ENSG00000132640|stop_codon|NA|stop_codon (ssRNA)
RNA: GGGAGUUCUACAGUCCGACGAUCACCUUAUCCCGGCCCCAAACUGGCAGGGUCUUUAUCCCACCAUUAGAGAGAGUAUGUUUUAGCUGUUGGGAGCUCUGUGUUCCAUGCGAUGUUUUACGGAGAACUUGCAGAGGACAAAGACAACAGAGGAUUGAGCAUCA
B20: chr10:11920118:11920232:-|3pUTR|ENSG00000151461|unk|total|mutant (ssRNA)
RNA: GGGAGUUCUACAGUCCGACGAUCGCCGUAUAUUCCGUCGGAGAGCACAUCUGUAUGCGACAACUUGAUUACAUCUUUUUUUCCCGCUAUUUUGCAUUUUUUCUUUUACCAUGUUUCAGUUUCUGCAUGCCGAUUUAAAUAAAACAACAGAGGAUUGAGCAUCA
B21: chr3:66417149:66417250:-|CDS|ENSG00000144749|msi1|FALSE|unique (ssRNA)
RNA: GGGAGUUCUACAGUCCGACGAUCCAACAAGAUUCGCAGCGUGGAGGGGAGCCAGCUGAAGGCCUACCUUUCCUUAGAAGUGUUAGAUCUGAGUUUGAACAACAUCACGGAAGUGCGGAACACCUGCUUUCCACACGGACCGCCCAACAGAGGAUUGAGCAUCA
B22: chr13:36848462:36848578:-|3pUTR|ENSG00000120693|unk|FALSE|unique (ssRNA)
RNA: GGGAGUUCUACAGUCCGACGAUCAAAUACAUAGAAUGUAUACUGUUCUUAUUUUUUUUAAUCACCGUUUGUUUUGUGCUUUCUAGUUAACCUGAUGCCAGUACAGUGCAAUUGGAAAAGCAGGACUUUGGUGCCUGUGCUAUACAACAGAGGAUUGAGCAUCA

Some of the results follow.

The assay concerns the target MSI1 full-length (mouse, UniProt Q61474 1-362). Briefly: nsRBNS (natural sequence RNA bind-n-seq); RBNS binding buffer (assumed for nsRBNS): 25 mM Tris pH 7.5, 150 mM KCl, 3 mM MgCl2, 0.01% Triton X-100, 500 ug/ml BSA, 20 U/ml SUPERase-In, 4 C; UNK is unkempt and MSI1 is Musashi-1; names of the RNAs are library labels; protein concentration not given here; high values mean tight binding.
UniProt Q61474, sequence (Q61474 whole entry): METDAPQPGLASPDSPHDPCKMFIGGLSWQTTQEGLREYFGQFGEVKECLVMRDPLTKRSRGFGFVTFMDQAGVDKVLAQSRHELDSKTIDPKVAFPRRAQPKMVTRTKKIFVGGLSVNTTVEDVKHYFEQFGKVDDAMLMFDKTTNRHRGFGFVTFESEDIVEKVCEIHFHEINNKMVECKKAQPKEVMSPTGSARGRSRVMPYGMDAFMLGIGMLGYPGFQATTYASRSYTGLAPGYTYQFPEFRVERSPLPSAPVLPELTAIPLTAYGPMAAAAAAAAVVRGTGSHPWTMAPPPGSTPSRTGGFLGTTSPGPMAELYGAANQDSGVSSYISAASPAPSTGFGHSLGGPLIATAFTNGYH
As to B1, the binding signal came out at 0.269 enrichment R.
B2 returned a binding signal of 0.628 enrichment R.
In the case of B3 it was 0.537 enrichment R; in that of B4, 0.564 enrichment R.
In the case of B5 it was 1.97 enrichment R; in that of B6, 0.96 enrichment R.
Next, B7: 0.753 enrichment R; B8: 0.877 enrichment R.
In turn, B9 had a binding signal of 0.7 enrichment R.
In the case of B10 it was 0.564 enrichment R; in that of B11, 17.7 enrichment R.
In the case of B12 it was 0.452 enrichment R.
In the case of B13 it was 0.42 enrichment R.
Regarding B14, the binding signal amounted to 0.477 enrichment R.
B15 registered a binding signal of 1.17 enrichment R.
Next, B16: 2.09 enrichment R; B17: 0.626 enrichment R; B18: 1.8 enrichment R.
Molecule B19 gave a binding signal of 0.771 enrichment R.
Next, B20: 0.709 enrichment R; B21: 0.514 enrichment R.
In turn, B22 showed a binding signal of 3.51 enrichment R.
